# Reference: paper PMC10726135
# The other results are listed elsewhere or left out. At the low end of the ranking the order means little. The protein was read in a cell extract, so binding may be indirect.
# Target: T1, HNF4alpha2 (COS-7 nuclear extract) (UniProt P41235)
# T1 sequence: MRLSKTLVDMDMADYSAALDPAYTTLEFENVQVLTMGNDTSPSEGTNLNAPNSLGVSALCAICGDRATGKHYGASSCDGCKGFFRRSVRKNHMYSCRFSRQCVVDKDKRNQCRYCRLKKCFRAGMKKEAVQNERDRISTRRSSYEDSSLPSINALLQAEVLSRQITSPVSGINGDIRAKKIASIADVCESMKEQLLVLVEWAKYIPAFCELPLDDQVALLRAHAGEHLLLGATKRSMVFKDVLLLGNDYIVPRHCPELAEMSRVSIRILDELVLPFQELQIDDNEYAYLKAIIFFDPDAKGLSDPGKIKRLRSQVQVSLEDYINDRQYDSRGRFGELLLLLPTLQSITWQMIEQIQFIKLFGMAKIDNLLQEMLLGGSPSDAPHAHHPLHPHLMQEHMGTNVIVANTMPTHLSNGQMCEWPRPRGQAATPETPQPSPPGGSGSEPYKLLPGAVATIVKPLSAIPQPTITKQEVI
# Assay: protein-binding microarray
# Details: COS-7 nuclear extract on double-stranded Agilent 4x180k PBM; binding buffer, salt, pH and temperature not given; high values mean tight binding; double strand, one strand shown; sequences stand for … in …GCCTAGGGAGATTAGAGTATCGGTCGA
row,Sequence,binding signal (log2 normalized intensity)
1,TCCATCAATGAAGCATATCAGTAGTTGCAA,-0.833
2,TAAACAGCATTTGTTTTAAGTTCATAGGTC,4.12
3,GAATGCTGTCCTGCCAGTTGTCATTTGGGG,1.48
4,TGCTGGAGATGAGGCTCAGACCTGACCTTT,6.49
5,TTCTTTATGGACCTTGTCCCTGGATTGTGT,3.55
6,AGCATTTGTTTTAAGTTCATAGGTCCTCTT,2.02
7,CCTGGACCCCTCCGGCAGCGGCCGGAAAAA,1.54
8,CCTCGGGTCCCACACACCTCAAATGCAGGT,-1.04
9,CTTAACAAACACAAAAAGCGGACAAACCAG,-1.14
10,AAAGGAATGTGCCTGCAAGTTCAAAAGGAC,1.1
11,ACCCTAGAGATGTACACAGTTCAAAGGGCA,5.52
12,GTTGGAAGCTGATAAGCCAAGAATGTACTC,0.713
13,AAGATAAAGTGTCTCTATTTGGAACCAAGA,0.792
14,ACCAGACTACCTCTTTAGGCTGGACTCTGA,3.96
15,AGTGGACTTTGACCTTGTTTTCAATGACTA,7.31
16,TGTGTCAAAGGTCACTTAGTCCCTAAGTCT,4.3
17,GGGCCAGCAGTGCCCAAAGCCCAAGGGATG,-1.11
18,GGCGTGACCCCCACTGCCTGCCTGCCAACT,2.89
19,ATCAAGGTGGTTTCACTTCAAGATGGCATC,0.985
20,TGTCCACCTTATCTAATGCCCCAAATGACG,2.33
21,TAAATGACCTCTGCCCTTCCACCCACTTTA,4.15
22,TGCTAGAGTACTTGGACTTTAACCTTTAGA,9.24
23,GTCATAAGCTGTGGGATCCAACCAGAGGGA,-1.15
24,CTCTTGCTTCCTGGGATGCATTTGAAACCA,0.504
25,TTCCTATGTAAACACAAGATATTATTAGAC,0.179

row,Sequence,binding signal (log2 normalized intensity)
1,ATATTCCAAATTCCAGCTGAAGTTCCCAGC,-1.12
2,AATCTGAATTAACTCTTTACACAGTTCTGA,-0.00196
3,TAGACTCCAGGCTTGTCCTTTTGACCACAG,2.34
4,GCTCTGCATCCTTCCCTAAGCAGCTGCAGT,-1.1
5,ACCTTCTACCGTACCTAGGACAAAGCAAAC,-1.01
6,AAAGTTCACCACTTTTGCAATGTTTCCAAA,-0.312
7,GGAATGAGCAGGAACCTTGTGGTGGTGAAA,1.01
8,GCTGGAACAGGCTGGGACACGCCTGCCCTC,1.35
9,CCTTCACCAGAGCCGTCTGGTAAATTTCTA,-0.574
10,ATTTTAGGAGCCTCCAATCAGGACAGACTG,-1.23
11,GTGTTCACACCACACTCTCCTCCTGGCCTC,-0.932
12,ACATGACCACCTGGTTTAAGTCACTATCAA,-0.506
13,TGTGTTTCTCAATGTCTTTCCTGCAGAGGG,1.21
14,TTGCTGACCCCCTACATAGAGAGCAGTCTT,2.53
15,GATGGTAACCACACCAAGGGGCCCCCACTT,-1.11
16,CCAAGACCTTTGAAGCTTGCAACAAAGGGG,-0.648
17,AATGTTATTTATCCAGCTGGGTATACTGAC,0.8
18,AAGTCTGAAATCTACAGGACAGCCAGGCAG,-1.21
19,AAAGGCAGCCCCTTATCAGGAGAGGAGGCC,-1.07
20,CTGGACAGGTCCAAGGTTCTCCAGGGACCC,0.952
21,TGCCTCAGTAGTAGTGAAAAATGAATAACT,-0.751
22,CCCAGAGGCTGGTCAGAATTCCATCCCAGG,-1.11
23,ATTAAGCAAGATATGTGCCTGCCTTATACA,0.217
24,ATTGCCAAGGGGGTGGTGAAATGGGGGAAG,-1.09
25,CTGACCAGCTCCAAAGTCCGCCACTAGCAA,-0.153

row,Sequence,binding signal (log2 normalized intensity)
1,GTTTATCTGCCTGTGGATAGCTGGCATGCA,-1.09
2,GTGGTACTCCAAAGGTCAGTTTAATTTTTG,3.67
3,GGGCGCACAAGATGCCGCCTCCCCGGGGAT,-1.15
4,GAGATGGCCCCTCTCTTTTATTATATTGAA,0.894
5,GGGGGTTGCAAGTCTGAGGCTGCTCTCTGT,-0.211
6,TTGAGTTTGCTCTGCTACTAACTGCATGAC,-0.452
7,TAGTCTTATCTCAAAGGGAGATTCCTGACA,0.393
8,GTGTATGGACTGTAATACACAAGCAATAGG,-1.03
9,TAGCTCGGGGGCCCTTCCCCCCTCTGCAGC,2.42
10,GGCAAAAGAGATAGCGAGAAGGCAGGTAGA,-1.02
11,CAGCAATCACCTACCCCCAGATTCTCTGTT,2.35
12,TGATGACTTTTGACCCCAGGGGAAACTCCA,3.99
13,TGTACAATGGAAGTGAGTCAGTTCTGTCCA,0.757
14,CTAACCCCTAACCCAGTGAATTCCTTCCTT,2.05
15,GGAGAGAGTTTGGCCCCAGTTCCCATGGAC,1.18
16,GGTGAGCAGAGGGAGGACAAAGTTCTGTCC,1.09
17,TCAGTAAATCTTAGAGAACACTCCTCCCCT,3.16
18,GGACTTGATCCAGGGCAAAGGTCATAATTT,6.98
19,GGCTGGCCCTGAGCCAAGGGAGCACAACCC,-1.21
20,GAGCAAATACTTATGATATGAAGCATTGCT,-1.12
21,AACATTACTAACTGGACTTTATCTACCATT,1.72
22,ATCTTTTCTTTTAAAAAGCTGCAATGGCTT,-1.08
23,GTGTCAGCATCTAAACCTCTGCACACAGGA,-1.16
24,CGGATCCTCCCAGCCTGGAGGAGGGCGAGG,-1.17
25,AGAATTCCAGAGATGCCAGGAGAGCCGAAG,-1.07

row,Sequence,binding signal (log2 normalized intensity)
1,GATAGCCTTTGCCTCCACCTTCTCTCCCAC,0.506
2,AAGTTCCCCGGGCAGCTGTGTTTGCAGCCG,-1.01
3,GACGCTCAGTAAATCTGCACTTTACGTAAG,-1.03
4,ATGCTGGTCTCCTTGCCCCACCCCCCACCC,7.6
5,ATCCTGCCTCCATTAATTAACCTTTGAGCT,5.75
6,GTCCTAAAGAGGATATCCTGGCAGTGTGGA,0.914
7,TAGGAGGTCAGCACAAGATACAGCTTATCA,-1.21
8,CTGTTTATGGGTTAACAGAATGAACAGCTC,1.22
9,GCTGAGGTTAGAATCCTTATCTGGTGTGCT,0.171
10,TAAGTGGAATGTTGCTGTGCTGCCCTCTTG,2.51
11,TTGTCTGACTGTGATACCAGGGGTCATTTT,4.17
12,GATAACAGCTTGATAATCCCCATGGGACCA,-1.09
13,GTCACGTGTGACCAAGGACAAACTGAGGAG,-0.811
14,CAATGTGACTGGAGCAGAGCGATCAAAGGT,0.667
15,TTACCCGCTTAAGAGTGAATTCTGCAGCAG,-0.966
16,AGCCTGCCCTCCTAGGGACAGGTGCGACGA,-1.12
17,AGTCAGAAGAACTGATTCCAAAGGAAATCA,-1.16
18,AACAGAGATTTGCAGCTCAAAGTGCTTTTC,-0.764
19,GAAAAACTGAGCTTTAGATAGCTGTTAAAT,-0.652
20,TTAACAAGCATTTTGTTCCCATTGATCATT,1.23
21,AATGTCTGGAAGTTCTTCCTTAAGTCTAAC,0.81
22,TATGGCCTTTCTTCATTGTTCGCATACCTC,1.51
23,TCGGCCTTTGACCTCGTGATAACGACATTC,3.69
24,AACCTAGCCCCCTTTCCCTTATCTTTGTTA,2.42
25,GGAGCAATCATCGCACCTAAGGGCACCCTT,-1.19

row,Sequence,binding signal (log2 normalized intensity)
1,TTTGCACAGTACTGATCTGGGGCCTATCTT,0.204
2,CAAAGCCCCTTTCCACTCTACCGTCCTCCC,1.91
3,CAAGCAAACTGCAAATACAGGTGAATTTCA,-1.13
4,TAACCATACTGAGTGTTGGTCAGGACGTGA,0.874
5,ACCTTTGAGCTGAGTTCCACAGATAAGGAG,-0.731
6,AGTCCTGCATGTGTTCACACCACACTCTCC,-0.662
7,CCAAAAGACCACACTCATCAGGTGAGATAA,-1.27
8,ATCATTAGGGAAAATAGTGACCCTGTCTCT,2.12
9,TCCCTTTGTCTCCAGGCCCTGGGATTGGCT,-0.699
10,AGAGAGCCAGATGAAGCTGCAGCCTTAAGA,-1.2
11,AGAATAAATCTGTTAGCAGAGCAATTACTC,-1.01
12,AACTGTCTCTGTTGCTCAATTCTGCTGTTG,0.745
13,GATTTACCTCTGACCACTCTGCCAGGTGAC,-1.11
14,ACTGATTCCAAAGGAAATCACATAGTAACA,-1.02
15,TTTTTACCATCTCCAACATGACCACCTGGT,1.6
16,GCAAGTATTTCACCCCAGAGGCTAAATGAC,-0.182
17,GTCAGTTCATTAAAAAAAAAAAAAAATACT,-0.903
18,GTATCAGGGCTCAGGAATGTGGGGTCAACA,2.99
19,GTGGAGTTGACACAGACCTGCCTCTCTCTC,-1.12
20,TAGGCTGTAGAGGAGATGTGGTGGACTTTA,4.25
21,CCACTGCCTGCCTGCCAACTCCACGCCCGC,-1.14
22,CTTCAAAGAAGAGCTCAGTCACAGCAGTGG,-1.15
23,TATGCCCCCCCACCCCACACACACACAGCA,6.17
24,AGACATTCTGGCAAAGCCAATCTGCTTAAA,-1.21
25,TGGACCCAGCTGGTAAGTGCAAGGCCCAGC,-1.07

row,Sequence,binding signal (log2 normalized intensity)
1,CCTGACTCATAGCTCCAGAGCCACCGCTAC,-1.14
2,CACTGTAACAGTTCAAGCAGTATTTGTGCC,0.305
3,ACGCTCCCAGTATGAGCGGCGCTGACCCCG,4.58
4,ACGAATGGGCAAAACATTCCTAAACAAGGG,-1.1
5,CTGAGCAGGGGACTAAGAGCAGCCTGACTA,-1.06
6,CTAAGCAGCGAAGCTGTGTCAGGCATTGTA,-0.168
7,TCTGATGAGTCCCCCGGCTCTACGCAAGTG,2.6
8,CGCAAGCATATCTCTAGATCTCAGTTGGTC,1.2
9,AGGCTAAGGCAGGAGAATCGCTTGAACCCA,1.39
10,GACCTAGAAGCCAGGGACCAGGAAGGCAGT,-1.15
11,CGCCCGCGCCGGCCTCGGTCCTCGCTCGCC,-1.1
12,AGAGTTAATCTGTTTACACAGTGAGATGGC,0.479
13,TGTGCAGAGGAGGGGGCAGGAGCCCAAGAA,-1.11
14,TCTCTGACTGGAAGTTGCCCGAGCTGCCCT,1.86
15,ACAAGATCTTTGGACTATTGTGAAGTGATA,1.9
16,TTTCAAGAATGGAGAAAACAACATTCCTTG,-0.213
17,GCATTCCTGCACACCTGCCTTTGATCAGGG,-0.679
18,CTCTTTAGGCTGGACTCTGACCCATTCCTT,5.23
19,GAGAGTCCTCTTGGTTTATGTTCACCTCAG,0.597
20,AGTACCGCTCCTCTCTGTATTCCCTCTCTT,0.0392
